The structures appear in SMILES notation. Not every entry of the source has a single result; some have several. This is not the full list of results. The source may hold further records. Values that stand side by side repeat one measurement in other runs, samples, wells, individuals or studies. Marks such as [2022-09] give the month of the run.

This assay relates to 616215-338-R-J1-PDC complex spheroids, viability % test/control. As to the kind of experiment: Anticancer human tumor 616215-338-R-J1-PDC patient-derived colon adenocarcinoma cell line growth inhibition [CLK]. As to conditions: compound alone 10 µM; stronger effect = lower value. An excerpt: A high-throughput screen of multi-cell type tumor spheroids was designed to identify active combinations of […] and targeted small molecules. Complex spheroids include a stromal component modeled by human endothelial cells (HUVEC) and fibroblasts modeled by human mesenchymal stem cells (MSCs). The concentration ranges selected for each drug and investigational agent were based upon clinically achievable concentrations if the clinical Cmax of the agent was known.
Compounds. The drugs and investigational agents: cirtuvivint (SM08502; NSC835563), CC-671 (NSC850746), vemurafenib (NSC761431), tapotoclax (NSC804041), sotorasib (NSC818433), adagrasib (NSC831453), MRTX-1133 (NSC836407), BAY2416964 (NSC825713), copanlisib (NSC816437), inavolisib (NSC800729), abemaciclib (NSC768073), osimertinib (NSC779217), entinostat (NSC756642), eltanexor (KPT-8602, NSC794443), venetoclax (NSC766270), ceralasertib (NSC777638), bortezomib (NSC756655), olaparib (NSC753686), talazoparib (NSC767125), alisertib (NSC759677), peposertib (NSC802822), gemcitabine (NSC613327), 5-fluorouracil (NSC19893), SN-38 (NSC673596), oxaliplatin (NSC266046), paclitaxel (NSC125973), and doxorubicin (NSC123127), were obtained from the National Cancer Institute (NCI) Developmental Therapeutics Program Chemical Repository. […] If the clinical Cmax for an agent had not been determined, the highest concentration tested was 10 microM. […]
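Further: spheroids exposed to agents for 7 days; 100% = DMSO vehicle wells.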

What is called viability, T/C is the result in the treated group divided by that in the control group, in per cent. On to `COC1C=CCC(C)C(C)S(=O)(=O)NC(=O)c2ccc3c(c2)N(CC2CCC21)CC1(CCCc2cc(Cl)ccc21)CO3` (configuration not stated), for which the viability, T/C was 0.01% [2023-07] and 50.4% [2023-08].
As for `CC1(C)CCC(CN2CCN(c3ccc(C(=O)NS(=O)(=O)c4ccc(NCC5CCOCC5)c([N+](=O)[O-])c4)c(Oc4cnc5[nH]ccc5c4)c3)CC2)=C(c2ccc(Cl)cc2)C1`, the figure is 3.31% [2023-07] and 99.6% [2023-08].

Source of the values: PubChem BioAssay AID2060610 (Molecular Pharmacology Branch, DTP, NCI, 2025).
